We go through 34 variants from the RNAGym collection of RNA variant scans (doi:10.1093/nar/gkz1192).

B1: CPEB3 Ribozyme (parent)
chain: UAACAGGGGGCCACAGCAGAAGCGUUCACGUCGCAGCCCCUGUCAGAUUCUGGUGAAUCUGCGAAUUCUGCUGUAUAUCUC

The source gives no read counts; variants with many changes may rest on few reads.

Variants of B1 are the subject of this data set. Kind of data set: self-cleavage, relative activity (ratio to wild type); higher = more cleavage; in vitro, sequencing. Put shortly:
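Relative activity compares each variant's cleaved/total read fraction with that of the unmutated ribozyme. To get these fractions, barcoded CPEB3 ribozyme libraries from rounds of error-prone PCR were transcribed with T7 RNA polymerase for 5 hours at 37°C and then given 15 min of DNase I treatment before EDTA was added. The RNAs were reverse transcribed with template switching and sequenced on Illumina, and DNA sequencing linked barcodes to variants. A minimum of 5 reads applied, and three batches were averaged.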
Turning to UAACUGGGGGCCACAGCAGAAGCGUUCACGUCGCAGCCCCUGUCAGAUUCUGGUGAAUCUGAGAAUUCUGCUGUUUAUCUC, the self-cleavage amounted to 0.23.
Turning to UAACUGAGGGCCACAGCAGAAGGGUUCACGUCGCAGCCCCAGUCAGAUUCUGGUGAAUCUGCGAAUCCUGCUGUAUAUCUC, the self-cleavage was found to be 0.1.
Take UAACUGGGGGCCACAGCAGAAGCGUUCACGUCGUAGCCCCUGCCAGGUUCUGGUGAAUCCGCGAAUUCUGCCGUAUAUCAC: the self-cleavage is 0.1.
With UAACUGGGCGCCACAGCAGAAGCGUUCACGUCGCAGCCCUUGUCAGAUUCCGGUGGAUCUGCGGAUUCUGCUGUAUAUCUC, the self-cleavage was 0.03.
In the case of UAACUGGGGGCCACAGCAGAAGCGUUCACGUCGCAGACCCUGUCGGAUCCUGGUGAAUCCGCGAAAUCUGCUGUAUUUCUC, the self-cleavage is 0.07.
The same measure for UAACUGGGGGCCACAGCAGAAGCGUUCACGUCGCAGCCCCUGUCAGAUUUUGGUGUAUCUGCGAAUUCUGCUGUAUAUCGC: 0.81; for UAACUGGGGGCCACAGCAGAAGCGCUCACGUCGCGGCCCCAGUCAGAUUCAGGUGAAUCUGCGUAUUCUGCUGUAUAUCUC: 0.07; for UAACUGGGUGCCACAGCAGAAGCGUUCGCGUCGCUGCUCCUGUCAGAUUCUGGUGAAUCAGCGAAUUCUGCUGUAUAUCUC: 0.04.
Consider UAACUGGGGGCCACAGCAGAAGCGUUCACGUCGCAGCCCCUGUUAGAUUCUGGUGGACCUGCGAAUUCUGCUGUAUAUCUC, for which the self-cleavage was 0.14.
The value for UAACUGGGGGCCACAGCAGAAGCGUACACGUCGCAGCCCCUGUCAGGCUCUGGUGAAUCUGCGAAUUCUACUGUAUAUCUC was 0.09; that for UAACUGGGUGCCACAGCAGAAGCGUUCACGUCGCAGCCCCUGUCAGAUUCUGGAGAAUCUGCGAAUUCUGCUGUAUAUCUC was 0.13; that for UAACUAGGGGCCACAGCAGUAGCGUCCACGUCGCAGCCCCUGUCAGAUUCUGGUGAAUCCGCGAAUUCUGCUGUAUAUCUC was 0.16.
As to UAACUGGGAGCCACAGCGGAAGCGUUCACGUCGCAGCCCCUGCCAGAUUCUGGUGAAUCUGCGAACACUGCUGUAUAUCAC, the self-cleavage was 0.05.
The same measure for UAACUGGGGGCCACAGCAGAAGCGUUCACGUCGCAGCCCCUGUCAGAUUCUGGUGAAUCUGGGAAUUCUGCCGUAUAUCUC: 0.33; for UAACUGGGUGCCCCAGCAGAAGCGUUCACGUCGCAGCCCCUGUCAGAUUCUGGUGAAUCUGCGAAUUUUGCUGUAUAUCUC: 0.56.
The same measure for UAACUGGAGGCCAUAGCAGAAGCGUUCACGUCGCAGCCCCUGUCAGAUUCUGGUGAAUCUGCGAAUUCUGCUGUAUACCUC: 0.19.
The value for UAACUGGGGGCCACAGCAGAAGCGCUCACGUCGCUGCCCCUGUCAGAUUCUGGUGAAUCUGCGAAUUCUGCUGUAUAUCUC was 0.41; that for UAACUGGGGGCCACAGCAGAAGCGCUCACGUCGCAGCCCCUGUCAGAUUCUGGUGAAUCUGCGAAUUCUGCUGUAUAACUC was 0.22; that for UAACUGGGGGCCACAGCAGAAGCGUUCACGUCGCAGCACCUGUCAGGUCCUGGUCAAUCUGCGAACUCUGCUGUAUAUCUC was 0.11.
Take UAACUGGGGGCCACAGCAGAAUCGUACACGUCGCAGCCCCUGUCAGAUUCUGGUGAAUCAGCGAAUACUGCUGUAUAUCUC: the self-cleavage is 0.18.
The same measure for UAACUAGGGGCCACAGCAGAAGCGUUCACGUCGCAGCCCCUGUCAGAUUCUGGUGAAUCUGCGAAUUCUGCAGUAUAUCCC: 0.6; for UAACUGUGGGCCACAGCAGAAGCGUUCACGUCGCAGCCCCUGUCAGAUUCUGGUGAAUCUGCGAAUUCCGCCGUAUAUCUC: 0.14.
The value for UAACUGGGGGCCACAGCAGAAGCGUUCACGUCGCAACCCCUGUCAGAUUCUGGUGAAUCUGCGAAUUCUGCUGUAUAUCCC was 0.47; that for UAACUGGGGGCCACACCAGAAGCGAUCACGUCGCUGCCCCUGUCAGAUCCUGGUGAAUCUGCGAAUUCUGCUGUAUAUCUC was 0.11; that for UAACUGGAGGCCACAGCAGAAGCGUUCAUGUCGCAGCCCCUGUCGGAUUCUGGUGAACCUGCGAAUUCUGCAGUAUAUCCC was 0.05.
Regarding UAACUGGGGGCCACAGCAGAAGCGUCCACGUCGCAGCCCCUGUCGAAUUCUGGUGAAUCUGCGAAUUCUGCUGUAUAACUC, the self-cleavage stood at 0.07.
In the case of UAACUAGGGGCCACAACAGAAGCGUUCACGUCGCAGCCCCUGGCAGAUUCUGGUGAAUCUGCGAAUUCUGCUGUAUAUCAC, the self-cleavage turned out to be 0.3.
On to UAACUGGGGGCCACAGCAGAAGCGCUCACGUCGCAGCCCCUGUCAGAUUCUGGUGAAUCUGCGGAUCCUGCUGUAUAUCUC, for which the self-cleavage came to 0.24.
The same measure for UAACUGGGGGCCACAGCAAAAGCGUUCACGUCGCAGCCCCUGACAGAUUCUGGUGAGUCUGCGAAUUCUGCUGUAUAUCUC: 0.35.
The same measure for UAACUGGGGGCCACAGCAGAAGCGCUCACGUCGCAGCCCCUGUCAGAUUCUGGUGAAUCCGCGAACUCUGCUGUAUAUCUC: 0.14; for UAACUGGGGGCCACAACAGAAGCGUUCACGUCGCAGCCCCUGUCAGAUUCUGGGGAAUCUGCGAAUUCUGCUGUAGAUCUC: 0.35; for UAACUGGGGGCCACAGCAGAAGCGCUCACGUCGCAGCCCCUGUCAGAUUCUGGCGAAUCUGCGAAUUCUGCUGUAUAUCUC: 0.15.
As to UAACUGGGCGCCACAGCAGAAGCGUUCACAUCGCAGCCCCAGUCAGAUUCUGGUGAAUCUGCGAAUUCUGCUGUAUAUCUC, the self-cleavage stood at 0.19.
For the variant UAACUGGGGGCCACAGCAGAAGCGCUCAUGUCGCAGCCCCUGUCAGAUUCUGGUGAAUCUGCGAAUUCUGCUGUAUAUCUC, the self-cleavage worked out at 0.41.
